# Test results taken from PubChem BioAssay AID1745853 (National Center for Advancing Translational Sciences (NCATS), 2022).
# Several values for one entry are separate records, joined by “and”; a condition that tells them apart may be missing. Identical values can stand only once. The list shows a part of the results. The main result of the screen is listed elsewhere. These columns were measured beside it and carry no call. Square brackets hold non-standard residues; d marks the D form. Peptide text beside a SMILES is read from it. 2Abz = Nc1ccccc1C(=O)O
# Columns and labels:
# Experiment in all cases: Primary Screen for Target Class Profiling of Small Molecule Inhibitors of Methyltransferases
# [1] = molecular target: Glycine N-methyltransferase (Homo sapiens) (UniProt Q14749); conditions: purified enzyme, MTase-Glo SAH luminescence; measured here: GNMT inhibition; at 40 µM; stronger effect = lower value
# Outline: (§1)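 Each enzyme was assayed with SAM and its substrate. SAH formation detected by MTase-Glo luminescence; single-point 40 uM screen[…].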
# [2] = molecular target: Guanidinoacetate N-methyltransferase (Homo sapiens) (UniProt Q14353); conditions: purified enzyme, MTase-Glo SAH luminescence; measured here: GAMT inhibition; at 40 µM; stronger effect = lower value
# Outline: as §1
# [3] = molecular target: Histamine N-methyltransferase (Homo sapiens) (UniProt P50135); conditions: purified enzyme, MTase-Glo SAH luminescence; measured here: HNMT inhibition; at 40 µM; stronger effect = lower value
# Outline: as §1
# [4] = molecular target: Nicotinamide N-methyltransferase (Homo sapiens) (UniProt P40261); conditions: purified enzyme, MTase-Glo SAH luminescence; measured here: NNMT inhibition; at 40 µM; stronger effect = lower value
# Outline: as §1
# [5] = molecular target: Phenylethanolamine N-methyltransferase (Homo sapiens) (UniProt P11086); conditions: purified enzyme, MTase-Glo SAH luminescence; measured here: PNMT inhibition; at 40 µM; stronger effect = lower value
# Outline: as §1
# % is scaled to controls: 0 for no effect and ±100 for the full control effect.
Molecule,"activity change, negative = inhibition [1]","activity change, negative = inhibition [2]","activity change, negative = inhibition [3]","activity change, negative = inhibition [4]","activity change, negative = inhibition [5]"
CCCn1c(=O)c2ccc(C(=O)NC(C)C)cc2n2c(=O)n(Cc3ccccc3F)nc12,-2.17%,4.66%,2.38%,-13.6%,0.586%
O=C(CCCc1nnc2n3nc(-c4ccccc4)nc3c3ccccc3n12)NCCc1ccc(Cl)cc1,-10.8%,2.43%,-4.38%,5.01%,-7.64%
CC(C)CCNC(=O)C1c2c(n(C)c3ccccc23)SCC(=O)N1c1ccc(F)cc1F (stereo not drawn),6.17%,0%,-3.12%,-5.91%,1.13%
COCCCN1C(=O)c2cc3ccc(OC)cc3n2CC1(C)C(=O)NC1CCCCCC1 (stereo not drawn),2.92%,0.328%,4.48%,5.3%,0.021%
COC(=O)C1=COC(O[C@@H]2O[C@H](COC(=O)/C=C/c3ccc(O)cc3)[C@@H](O)[C@H](O)[C@H]2O)C2C(CO)=CCC12 (stereo partly drawn),2.33%,1.52%,11%,-11.2%,-4.12%
C[C@]1(CO)[C@H]2Cc3sc(NC(=O)c4ccc(F)cc4)nc3[C@@H](CC(=O)NCc3ccccc3)[C@]2(C)CC[C@H]1O,-11.4%,-9.85%,-8.14%,-16.2%,-13.9%
Cc1cccc(Cn2nc3n(Cc4ccccc4)c(=O)c4ccc(C(=O)NCC(C)C)cc4n3c2=O)c1,5.1%,0%,9.19%,4.46%,6.38%
C=C1CCC2[C@](C)(CO)CCC[C@@]2(C)[C@@H]1CCC1=CCOC1=O (stereo partly drawn),2.29%,3.9%,8.86%,-12.9%,-6.12%
COc1ccccc1CN1C(=O)c2cc3occc3n2CC1(C)C(=O)NC1CCCC(C)C1C (stereo not drawn),-14.9%,-6.85%,-4.45%,-15.7%,-10.6%
CCC(C)NC(=O)c1ccc2c(=O)n(C)c3nn(Cc4cccc(F)c4)c(=O)n3c2c1 (stereo not drawn),7.13%,2.17%,8.81%,4.58%,8.11%
Fc1ccc(-c2cccc(CN3CCOCC3)c2)c(Cl)c1,-4.02%,-1.11%,-2%,-13.1%,-6.19%
CC1(C(=O)NC2CCCCCC2)Cn2c(cc3ccccc32)C(=O)N1CC1CCCO1 (stereo not drawn),3.79%,4.03%,-0.684%,3.13%,-2.91%
Cc1ccc(C)c(NS(=O)(=O)c2ccc3[nH]c(=O)[nH]c3c2)c1,-2.32%,4.41%,8.1%,14.6%,-2.64%
COc1cccc(-c2nc3cc4c(cc3cc2CN2CCOCC2)OCO4)c1OC,-2.24%,-2.16%,-0.752%,-13.2%,-26.2%
CC1(C(=O)NC2CCCC2)Cn2c(ccc2-c2ccco2)C(=O)N1Cc1ccc2c(c1)OCO2 (stereo not drawn),-9.24%,0%,2.36%,-5.82%,-5.48%
O=C(NCCCN1CCC2(CC1)OCc1ccccc12)[C@H]1CCCN1Cc1ccccc1,-2.59%,3.05%,0.705%,-18.5%,-2.83%
Cc1cc(C)cc(NS(=O)(=O)c2cc3c(cc2C)n(C)c(=O)n3C)c1,11.9%,0%,4.33%,-2.06%,2.97%
CC(C)OCCCn1c(=O)c2cc(Cl)ccc2n2c(SCc3ccc(F)cc3)nnc12,-0.833%,4.08%,10.9%,-7.84%,5.14%
COc1cc(=O)n2c(c1C(=O)NCc1ccccc1Cl)CCCC2,-4.84%,-5.44%,-2.22%,-9.77%,-7.96%
COc1ccccc1N1CCN(CCN(C(=O)C2CCCCC2)c2ccccn2)CC1,2.15% and 8.37%,12.7% and 7.67%,6.22% and 8.2%,-2.01% and -4.2%,5.03% and 3.85%

Molecule,"activity change, negative = inhibition [1]","activity change, negative = inhibition [2]","activity change, negative = inhibition [3]","activity change, negative = inhibition [4]","activity change, negative = inhibition [5]"
Cc1ccc(C)c(Cn2nc3n(Cc4ccccc4)c(=O)c4ccccc4n3c2=O)c1,5.45%,0%,10.1%,6.58%,5.45%
Cn1cc(CN2CCCCCNC(=O)[C@@H]3CCC[C@@H]32)c2ccccc21,-11.4%,-9.92%,-12.5%,-23.3%,-9.93%
COc1ncccc1-c1cc2c(ccn2CC2CCN([S+](C)(=O)[O-])CC2)c(N2CCOCC2)n1,-22.9%,-11.6%,-54.8%,-16.8%,-45.8%
Cc1cccc(CN2C(=O)c3ccc(-c4ccco4)n3CC2(C)C(=O)NC2CCCCC2)c1 (stereo not drawn),-2.62%,4.72%,-1.78%,-8.1%,-1.15%
CS(=O)(=O)c1ccc([C@@H](C[C@H]2CCC(=O)C2)C(=O)Nc2cnccn2)cc1Cl,,-1.41%,,-9.79%,2.7%
CCC(C)C1NC(=O)C2CCCN2C(=O)C(C(C)C)NC(=O)c2ccccc2NC(=O)C(Cc2ccc(O)cc2)NC(=O)C(C)NC(=O)C(C(C)O)NC1=O (stereo not drawn) (cyclo([2Abz]VPITAY); configuration not given here),0%,5.9%,11.7%,-4.82%,1.24%
CC1CCCCN1CCNC(=O)CCc1nnc2n(Cc3ccc(F)cc3)c(=O)c3ccccc3n12 (stereo not drawn),-7.12%,4.82%,-51.9%,-5.83%,0.406%
CCC(C)NC(=O)c1ccc2c(=O)n(C)c3nn(Cc4c(F)cccc4Cl)c(=O)n3c2c1 (stereo not drawn),2.33%,3.88%,4.4%,4.82%,0.796%
O=C(CCn1ccc2cc(S(=O)(=O)N3CCCCC3)ccc21)NCCc1ccco1,-4.57%,0%,7.27%,-12.7%,-4.96%
Cc1cnc(CC2CCN(C(=O)Cc3cccc(F)c3)CC2)n1CC1CC1,-2.4%,-0.088%,-29.2%,-39.8%,-1.7%
CCOCCn1nc(C)cc1C(=O)N[C@H]1[C@H]2CCO[C@H]2[C@@H]1N(C)C,-6.03%,-3.52%,0.515%,-5.68%,-0.21%
C[C@@H](NC(=O)c1ncnc(N)c1Cl)c1ncc(C(=O)Nc2cc(C(F)(F)F)c(Cl)cn2)s1,-4.83%,1.12%,-6.77%,-20%,-7.6%
CCOC(=O)c1ccc2c(c1)C1C=CCC1C(c1ccc(Br)cc1)N2 (stereo not drawn),-16.7%,-7.2%,-14.9%,-19.6%,-19.4%
COc1ccccc1NC(=O)CSc1nnc2n(C)c(=O)c3ccc(C(=O)NC4CCCC4)cc3n12,0.278%,0.494%,5.08%,5.42%,3.63%
CN1C(=O)c2cc(C(=O)NC3CCCCCC3)nn2CC1(C)C(=O)NC1CCCCC1 (stereo not drawn),0.968%,0%,2.51%,4.32%,2.99%
COc1ccccc1N1CCN(S(=O)(=O)c2cc3c(cc2Cl)n(C)c(=O)n3C)CC1,-0.991%,0%,1.7%,-3.41%,1.12%
C[n+]1cc2c3c(ccc2c2ccc4cc5c(cc4c21)OCO5)OCO3,-64.4%,-0.906%,-7.72%,-13.2%,-6.57%
COc1ccc(CN2C(=O)c3cc4oc(C)cc4n3CC2(C(=O)NC2CCCCCC2)c2ccccc2)cc1 (stereo not drawn),-2.94%,-1.65%,-6.94%,-10.7%,-27.7%
Cn1c(=O)c2ccc(C(=O)NC3CCCC3)cc2n2c(SCc3ccccc3)nnc12,-3.64%,4.93%,-1.3%,1.13%,2.26%
O=c1c2nc(-c3ccsc3)ccc2ncn1-c1ccccc1,-5.75%,0.178%,-0.53%,-5%,-2%

Molecule,"activity change, negative = inhibition [1]","activity change, negative = inhibition [2]","activity change, negative = inhibition [3]","activity change, negative = inhibition [4]","activity change, negative = inhibition [5]"
CCC1CN(S(=O)(=O)c2ccc3[nH]c4c(c3c2)CCCC4)c2ccccc2S1 (stereo not drawn),1.06%,6.91%,-5.33%,-9.83%,-0.17%
COc1ccc(OC)c(CCN2C(=O)c3cc4occc4n3CC2(C)C(=O)NC2CCC(C)CC2)c1 (stereo not drawn),-2.27%,0.015%,3.92%,-3.32%,0.611%
Cc1cc2c(cc3n2CC(C)(C(=O)NC2CCCCCC2)N(CCCc2ccccc2)C3=O)o1 (stereo not drawn),4.39%,2.08%,9.72%,4.1%,4.61%
Clc1cc(NCc2ccccc2Cl)n2nccc2n1,-19.9%,-5%,-7.49%,-19.8%,-1.34%
CN(c1ccc(NC(=O)Nc2ccccc2)cc1)S(=O)(=O)c1cnn(-c2ccc(F)cc2)c1,3.87%,-2.63%,-2.46%,-18.4%,-3.78%
Cc1cc(C)c(Nc2ccnc(Nc3ccc(C#N)cc3)n2)c(C)c1,-6.43%,-17.8%,-5.44%,-37.5%,-15.2%
H-DPPDPDRFYGMM-NH2,3.67%,4.27%,12.9%,-6.27%,6.01%
CCn1cc(S(=O)(=O)N2CCC[C@H]2c2nc(-c3ccc(F)cc3)n[nH]2)cn1,-3.99%,-6.99%,-0.502%,-10.1%,-5.47%
CCN1C(=O)c2cc3ccccc3n2CC1(C)C(=O)NCC(=O)NCc1ccc(C)cc1 (stereo not drawn),0.304%,0%,8.05%,-1.51%,2.02%
COC1=CC(=O)O[C@@H](CCc2ccccc2)[C@@H]1O,2.99%,0.997%,12.3%,-11.9%,-5.07%
CC1CCN(S(=O)(=O)c2ccc3c(ccn3CC(=O)NC3CC3)c2)CC1,-3.03%,4.03%,-1.65%,-0.786%,0.186%
C[C@@H]1C(=O)O[C@H]2[C@H]1CC[C@@]1(C)C(=O)C=C[C@@](C)(O)[C@H]21,4.66%,4.63%,9.23%,-7.28%,3.38%
O=C(c1cscn1)N1CCC2(CCCN(CCC3CCCCC3)C2=O)C1 (stereo not drawn),-0.734%,1.62%,1.6%,-14.4%,8.85%
Cc1noc([C@@H]2CN(C3CCCCCC3)C[C@H]2CO)n1,-2.32%,0.943%,0.462%,-4.49%,9.85%
CC(=O)Nc1ccc2c(c1)S(=O)(=O)N=C(CC(C)C)N2CC(C)C,-9.23%,-9.97%,-22.9%,-14.6%,-8.54%
CCOC(=O)C(Cc1cccc(N2CCC(Nc3ccccc3)CC2)c1F)OC (stereo not drawn),-3.61%,1.32%,2.07%,0.105%,3.73%
O=C(c1cccs1)N1CCCC(Cc2noc(-c3cnccn3)n2)C1 (stereo not drawn),-1.91%,-0.454%,-0.361%,-3.53%,-8.63%
CC[C@H](C)[C@H](NC(=O)[C@H]([C@@H](C)CC)N(C)C(C)=O)C(=O)N[C@H](C(=O)N[C@@H](CC(C)C)C(=O)[C@@]1(C)CO1)[C@@H](C)O,-4.1%,-8.63%,4.74%,-13%,-4.79%
O=C(O[C@H]1[C@@H]2C[C@@H]3OC[C@@](O)([C@H]2[C@H](O[C@@H]2O[C@H](CO)[C@@H](O)[C@H](O)[C@H]2O)O3)[C@@H]1O)c1ccccc1,0.78%,3.33%,9.49%,-9.66%,3.01%
